Results from article PMC4336329 (PLoS ONE, 2015).
Hit rate of the full screen: of about 310,000 compounds, about 2,200 (0.71%) showed an effect of 50% or more. The effect is printed as a negative number. The list shows a part of the results.

Molecular target: human ether-à-go-go-related gene (hERG) potassium channel (human, UniProt Q12809)
Experiment: primary screen, population patch clamp on CHO cells stably expressing hERG

Sequence of human ether-à-go-go-related gene (hERG) potassium channel (Q12809 whole entry, looked up): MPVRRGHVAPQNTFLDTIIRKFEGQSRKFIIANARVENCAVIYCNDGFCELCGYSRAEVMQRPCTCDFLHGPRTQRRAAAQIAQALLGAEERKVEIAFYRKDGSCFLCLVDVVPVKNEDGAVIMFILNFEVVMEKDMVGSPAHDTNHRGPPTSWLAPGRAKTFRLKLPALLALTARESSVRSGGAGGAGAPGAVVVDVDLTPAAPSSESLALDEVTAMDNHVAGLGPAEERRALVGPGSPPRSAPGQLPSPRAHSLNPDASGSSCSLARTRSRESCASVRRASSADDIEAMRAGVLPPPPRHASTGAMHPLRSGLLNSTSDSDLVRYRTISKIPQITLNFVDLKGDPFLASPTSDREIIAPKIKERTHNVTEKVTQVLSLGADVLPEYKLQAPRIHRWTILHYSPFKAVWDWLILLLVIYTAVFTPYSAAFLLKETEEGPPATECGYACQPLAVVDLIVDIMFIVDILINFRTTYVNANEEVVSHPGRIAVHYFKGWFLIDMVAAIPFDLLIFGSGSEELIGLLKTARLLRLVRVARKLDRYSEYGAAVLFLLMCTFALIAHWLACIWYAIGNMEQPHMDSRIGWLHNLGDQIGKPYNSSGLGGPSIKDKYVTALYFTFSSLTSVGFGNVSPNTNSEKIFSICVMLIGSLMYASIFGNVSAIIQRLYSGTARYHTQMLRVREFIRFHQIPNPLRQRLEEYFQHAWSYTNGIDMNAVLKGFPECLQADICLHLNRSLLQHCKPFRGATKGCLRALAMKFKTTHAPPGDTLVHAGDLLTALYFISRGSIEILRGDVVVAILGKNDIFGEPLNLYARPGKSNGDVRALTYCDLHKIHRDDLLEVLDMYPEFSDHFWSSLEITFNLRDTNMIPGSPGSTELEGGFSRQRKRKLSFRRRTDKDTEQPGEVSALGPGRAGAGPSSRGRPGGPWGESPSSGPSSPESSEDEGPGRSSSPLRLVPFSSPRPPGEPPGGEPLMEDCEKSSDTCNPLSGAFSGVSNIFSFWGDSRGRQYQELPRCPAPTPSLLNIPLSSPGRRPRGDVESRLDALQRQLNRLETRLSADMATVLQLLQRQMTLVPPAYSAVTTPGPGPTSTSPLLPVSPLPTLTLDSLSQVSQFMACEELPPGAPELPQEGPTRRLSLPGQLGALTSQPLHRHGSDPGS

SMILES	hERG current change (%, negative = inhibition) at 1uM [%]
O=C1CC(c2cc(F)ccc2F)c2cc3c(cc2N1)CCC3 (stereo not drawn)	12.4
CC(C)OCCCNC(=O)Cn1ncc2c(=O)oc3ccccc3c21	-0.0503
O=c1nc2ccccc2c(NS(=O)(=O)c2ccccc2)n1-c1ccccc1	9.91
Cc1ccc(-c2nnc(N3CCCCC3)c3ccccc23)cc1S(=O)(=O)N(C)C	-9.21
Cc1cc(C)c(C)c(S(=O)(=O)N2CCC(C(=O)Nc3ccccc3N3CCOCC3)CC2)c1C	3.1
CCOC(=O)N1CCN(CC(=O)Nc2cc(C)nn2-c2nc3ccccc3s2)CC1	2.94
Clc1ccc(OCC#CCN2CCOCC2)cc1.O=C(O)C(=O)O	14.9
O=C(Cn1cc(/C=N/O)c2ccccc21)N1CCOCC1	24.9
CC(C)(C)NC(=O)C(c1ccc(O)cc1)N(C(=O)CCC(=O)Nc1nccs1)c1ccc(F)cc1 (stereo not drawn)	7.52
O=C1CCC(C(=O)N2CCCC(N3CCN(c4cccc(C(F)(F)F)c4)CC3)C2)=NN1 (stereo not drawn)	-2.4
COc1ccc(-c2cccc([C@H]3[C@@H]4C=CCC[C@@]4(C)C(=O)N3Cc3ccccc3)c2)cc1	14.6
Cc1ccc(OS(=O)(=O)c2ccc(N3C(=O)CCC3=O)cc2)cc1	18.9
Cl.O=c1[nH]cnc2c1N1CCC2CC1	7.71
O=C(OCC(=O)N1CCCCCC1)c1cccs1	23.7
COc1ccccc1C(=O)NCCC(=O)Nc1ncccc1C	17.9
N#CC(C(=O)c1ccccc1)=C1SCCS1	12.6
O=C(Cn1nc(C(F)(F)F)c2c1CCC2)NCc1ccc(Cl)cc1	13.1
CCOC(=O)Cc1csc(NC(=O)c2cccnc2)n1	-0.104
CCOC(=O)C(=O)Nc1nc(-c2ccccc2)c(CC)s1	5.64
O=C(c1ccc2c(c1)OCCO2)C1CCN(C(=O)Nc2ccccc2F)CC1	15.9
O=C1CCc2cc(S(=O)(=O)N3CCN(c4ccccc4F)CC3)ccc2N1	-4.41

SMILES	hERG current change (%, negative = inhibition) at 1uM [%]
Cc1nn(CC(=O)OCC(=O)Nc2ccccc2[N+](=O)[O-])c(C)c1[N+](=O)[O-]	7.87
Cc1ccc(N(C(=O)c2snc(C(N)=O)c2N)C(C(=O)NC2CCCC2)c2ccc(C)o2)cc1 (stereo not drawn)	19.2
O=C(CSc1nc2ccccc2s1)Nc1ccc(Cl)c(S(=O)(=O)N2CCOCC2)c1	8.31
Cc1cc(C(=O)COC(=O)c2ccc(O)cc2O)c(C)n1-c1ccccc1	6.26
CCCCOc1ccc(C2/C(=C(/O)c3ccc4c(c3)CC(C)O4)C(=O)C(=O)N2CCCN2CCOCC2)cc1OC (stereo not drawn)	13.7
Cc1cc(O)cc2c1O[C@@](C)(CCC[C@@H](C)CCC[C@@H](C)CCCC(C)C)CC2	2.78
CCCCC(=O)Nc1cccc(-c2cn3ccccc3n2)c1	5.7
O=C(NCC1CCCO1)c1ccc(S(=O)(=O)Nc2ccccc2F)cc1 (stereo not drawn)	7.53
COc1ccc(OC)c(N(CC(N)=O)S(=O)(=O)c2ccc(OC)c(OC)c2)c1	3.68
CCOC(=O)N1CCN(C(=O)c2cn(CC)c3ccc(S(=O)(=O)N4CCC(C)CC4)cc3c2=O)CC1	8.03
O=S(=O)(Nc1cccc(-n2cnnn2)c1)c1cc(Br)ccc1Br	10.3
Cc1nnc(SCC(=O)N2CCN(S(=O)(=O)c3ccccc3)CC2)n1Cc1ccccc1	11.2
Cn1c(CN2CCCC2)nc2cc(NS(=O)(=O)c3ccc(Cl)cc3)ccc21	-31
Cc1ccc(-c2cc([C@H]3[C@H]4C=CC[C@@H](C)[C@@H]4C(=O)N3Cc3ccccc3)ccc2F)cc1	13.3
COc1ccc(S(=O)(=O)N/N=C\c2ccc(OC)c(COc3ccc(C)cc3[N+](=O)[O-])c2)cc1	7.57
CC(=O)Nc1ccc(NC(=O)c2sc(-c3ccccc3)nc2C)cc1	14
CCOC(=O)c1cnc2c(C(=O)OC)cccc2c1NCc1cccnc1	-55.5
O=C(Nc1ccc(-c2csnn2)cc1)C(Cl)(Cl)Cl	11
CC(=O)NCCc1ccc(S(=O)(=O)Nc2ccc(NC(=O)c3ccc(F)cc3)cc2)cc1	11.5
COc1cc(NC(=O)CSCc2ccccc2)c(C(=O)O)cc1OC	11.7
Cc1ccc2[nH]c(=O)c(CN(Cc3ccccc3Cl)C(=O)N3CCOCC3)cc2c1	-23.5

SMILES	hERG current change (%, negative = inhibition) at 1uM [%]
O=C1CC(N2CCC(O)(c3ccc(Cl)cc3)CC2)C(=O)N1Cc1ccc(N2CCCC2=O)cc1 (stereo not drawn)	6.35
Cc1ccc(C(=O)N/N=C\c2cccnc2)s1	12.2
O=C1c2cc(O)cc(O)c2C(=O)c2c1cc(O)c([C@@H](CO)CCO)c2O	23
O=C(CN(C(=O)CNS(=O)(=O)c1ccc(F)cc1)c1cccc(F)c1)NCC1CCCO1 (stereo not drawn)	16.3
CNCCC(=O)N1c2ccccc2CCc2ccc(NC(=O)OC)cc21.Cl	17.9
O=C(CSc1ncccn1)Nc1cccc2ccccc12	10.1
COc1ccccc1CCNC(=O)C(=O)NCCC1CCCCN1S(=O)(=O)c1cccs1 (stereo not drawn)	7.24
O=C1NC(=O)C2(Cc3cc([N+](=O)[O-])ccc3N3CCN(C(=O)c4ccccc4)CC32)C(=O)N1 (stereo not drawn)	12
COc1ccc(C(=O)NCC(=O)NCC2(N(C)C)CCCCC2)cc1OC	14.2
Cc1cccc(NC(=O)c2cc(-c3cc(C)c(C)cc3O)n[nH]2)c1	14.9
CC(=O)Nc1ccc(NC(=O)C(C)OC(=O)c2ccccc2NS(=O)(=O)c2cccs2)cc1 (stereo not drawn)	5.11
CCOc1ccccc1C1c2[nH]c3ccccc3c2C[C@H]2C(=O)N(C3CCN(Cc4ccccc4)CC3)CC(=O)N12 (stereo partly drawn)	6.74
COc1ccccc1OCCOCCN1CCCC1	13.2
CC(C)NC(=O)c1ccc(N2CCOCC2)nc1	14.7
COC(=O)c1ccc2c(=O)n(NC(=O)C(c3ccccc3)c3ccccc3)c(=S)[nH]c2c1	-9.45
CCN(CC)C(=O)Cn1cc(S(=O)(=O)CC(=O)Nc2ccc(C(N)=O)cc2)c2ccccc21	28.8
S=c1[nH]ccn1-c1ccc(Cl)cc1	14.5
C/C(=C\c1ccco1)CN1CCN(Cc2ccc(C)o2)C(CCO)C1 (stereo not drawn)	7.81
CC(=O)N1CCCc2ccccc21	16.7
O=C(/C=C/c1ccc(O)cc1)c1ccccc1	7.98
CC1(C)c2[nH]c3ccccc3c2C[C@@H]2C(=O)N(Cc3ccccc3Cl)C(=O)N21	15.7

SMILES	hERG current change (%, negative = inhibition) at 1uM [%]
Cc1ccc(S(=O)(=O)NC(=O)N2CCN(Cc3c(F)cccc3Cl)CC2)cc1	19.2
CC(C)(C)NC(=O)C(c1ccc(Cl)cc1)N(Cc1ccco1)C(=O)CCl (stereo not drawn)	6.64
NC(=O)c1ccc(N2CCCCC2)c(N2C(=O)C3C4C=CC(C4)C3C2=O)c1 (stereo not drawn)	6.68
C=C(C)C(=O)N1CC2(CC(c3cccc(NC(=O)c4ccccc4)c3)=NO2)C[C@@H]1C(N)=O (stereo partly drawn)	6.2
CCN(CC)C(=O)c1sc(N2C(=O)Nc3ccccc3N2O)c(C(=O)OC)c1C	2.68
CC12CCC(C(=O)NCc3ccccc3Cl)(CC1=O)C2(C)C (stereo not drawn)	12.4
CCOC(=O)c1cc(-c2ccccc2)n(CC(=O)O)c1C	3.85
COc1ccc(C(=O)C[n+]2ccc3c(c2)nc(-c2cc(OC)c(OC)cc2OC)n3C)cc1.[Br-]	4.74
COc1cc(OC)nc(NC(=O)CSc2nc3ccccc3[nH]2)n1	11.4
COc1cccc(NC(=O)CN(C)C(=O)C(CCSC)NC(=O)c2ccco2)c1 (stereo not drawn)	15.1
O=C(COc1ccccc1)NCC(=O)NC1=NCCS1	16.1
COc1ccc(CNC(=O)Nc2cc(C)ccc2C)cc1	13.2
CCCCCOCC1CC(C/C(C)=N/NC(N)=S)C(=O)O1 (stereo not drawn)	-5.31
CC(C)c1onc(C(=O)NC2CCCC2)c1[N+](=O)[O-]	13.4
CCCc1cc(Nc2ccc(C)cc2)n2ncnc2n1	8.04
CC1=C(C(=O)OCCOc2ccccc2)C(c2coc3ccccc3c2=O)C2=C(CCCC2=O)N1 (stereo not drawn)	-4.82
CC(NC(=O)Nc1nccs1)(C(F)(F)F)C(F)(F)F	4.39
CC(=O)NC1=NN(C(C)=O)C(C)(c2cccc([N+](=O)[O-])c2)S1 (stereo not drawn)	8.83
CN(C)c1ccc(/C=C2\C(=N)N3N=C(CC(=O)N4CCCCC4)SC3=NC2=O)cc1	11.5
COC(=O)C1=C(C(=O)OC)[C@@H]2N(C)c3ccccc3[C@@]23C[C@@H](C(=O)OC)N(C(=O)CC(C)C)C3=N1	14.4
COc1ccc(C(=O)NCCSc2ccccn2)cc1	9.08
